{"source": "paper PMC12136788", "binders": {"B1": {"name": "chr11:35230299:35231094:+|3pUTR|ENSG00000026508|msi1|FALSE|unique (ssRNA)", "RNA": "GGGAGUUCUACAGUCCGACGAUCGCCUGGGGAGUCCCUCAAAAGGUUAAAGGGAUUCCCAUCAUUGGAAUCUUAUCACCAGAUAGGCAAGUUUAUGACCAAACAAGAGAGUACUGGCUUUAUCCUCUAACCUCAUAUUUUCUCCAACAGAGGAUUGAGCAUCA"}, "B2": {"name": "chr5:72208839:72208948:+|3pUTR|ENSG00000131711|msi1_unk|total|mutant (ssRNA)", "RNA": "GGGAGUUCUACAGUCCGACGAUCCUUGCCUCUCUUCCGUCACCUGUCACAGGAGGUUCCUGCUCAGUAAUGAUAUUGUGAGUCCGGAUAAUAACUUUUUUUUUUUGUGCUUCAGAUUCCGAAGAAAAGAUCCUGUUUCCAUUUCAACAGAGGAUUGAGCAUCA"}, "B3": {"name": "chr16:70572763:70572864:+|3pUTR|ENSG00000189091|msi1|total|mutant (ssRNA)", "RNA": "GGGAGUUCUACAGUCCGACGAUCUCUGCAGCACCCAUCUCAGGUGGGUUCCAGAGGGCCUUCCGGGUAUAAUGAGAGCCUGUCCGGUGGAAGAGGCCCAGUUCCAGAAAUGUUCCAGCCCACCCCUGAGAAUUCCUCCUGUUUCAACAGAGGAUUGAGCAUCA"}, "B4": {"name": "ENSG00000170471:stop:overlap|stop_codon|ENSG00000170471|stop_codon|NA|stop_codon (ssRNA)", "RNA": "GGGAGUUCUACAGUCCGACGAUCUGGAGCCAGAGUUUUAUACUUCACUUUUCCAGGAGGUUGGACUCAAGAACUGCAGUUCUUAGACCACUGAAUUUCUAAGACUGUUGAACUCCAGUUUGGGAACUAUAACACAGCAGAACACAACAGAGGAUUGAGCAUCA"}, "B5": {"name": "chr21:30319405:30320035:-|CDS|ENSG00000197683|control|control|control (ssRNA)", "RNA": "GGGAGUUCUACAGUCCGACGAUCGAGGUAUGUGUCCAGCGGCUGUCGUCCACUGAGGCCGCUGCUCAAUAGUUACCAGCCCAUAGGAGACUGUGUGCCCAAUGCCUAUCGCCCCCAAUUCUGCUUGUCCAAGAGUUGCCAGCCCAACAGAGGAUUGAGCAUCA"}, "B6": {"name": "chr10:116062369:116062470:-|3pUTR|ENSG00000151892|msi1|total|mutant (ssRNA)", "RNA": "GGGAGUUCUACAGUCCGACGAUCCUUUUUUCACUUCAAAAUGUUUUCAAGGGAAAUUCAGCAGACACCCAACUGUAUUUAAUCCGUGAAAAGAUCUAUAAAGACUCUUACUUUGAAUAAACACAUUAAGUAAGUGUGUCAAAACAACAGAGGAUUGAGCAUCA"}}, "note": "Some of the results follow."}
{"target": "MSI1 full-length (mouse, UniProt Q61474 1-362)", "sequence (Q61474 whole entry)": "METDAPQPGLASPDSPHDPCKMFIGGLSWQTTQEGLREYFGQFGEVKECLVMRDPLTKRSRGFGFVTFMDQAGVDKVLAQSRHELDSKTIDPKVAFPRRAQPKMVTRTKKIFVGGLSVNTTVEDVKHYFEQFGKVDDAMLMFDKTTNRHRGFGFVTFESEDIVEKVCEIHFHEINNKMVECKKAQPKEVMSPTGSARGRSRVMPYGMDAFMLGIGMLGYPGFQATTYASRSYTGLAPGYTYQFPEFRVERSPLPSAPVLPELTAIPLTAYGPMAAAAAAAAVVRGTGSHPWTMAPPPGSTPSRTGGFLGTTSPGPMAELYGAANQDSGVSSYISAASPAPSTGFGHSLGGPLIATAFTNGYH", "assay": "nsRBNS (natural sequence RNA bind-n-seq); RBNS binding buffer (assumed for nsRBNS): 25 mM Tris pH 7.5, 150 mM KCl, 3 mM MgCl2, 0.01% Triton X-100, 500 ug/ml BSA, 20 U/ml SUPERase-In, 4 C; UNK is unkempt and MSI1 is Musashi-1; names of the RNAs are library labels; protein concentration not given here; high values mean tight binding", "units": {"binding signal": "enrichment R"}}
{"binder": "B1", "binding signal": 0.404}
{"binder": "B2", "binding signal": 0.349}
{"binder": "B3", "binding signal": 0.294}
{"binder": "B4", "binding signal": 0.335}
{"binder": "B5", "binding signal": 0.523}
{"binder": "B6", "binding signal": 0.276}
